Measured values from PubChem BioAssay (NCI).
Where “and” joins values, the source holds several entries; their conditions need not be identical. Equal values may be shown once.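 Where inhibition never reached the appropriate level, the endpoint shown equals the highest concentration tested. Otherwise, values were interpolated linearly from a five-concentration, 48-hour dose response in 96-well plates. GI50 is the concentration that inhibits growth by half. At the TGI there is no net growth.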 Numbered stars: 1 amine (or outer) side, 2 acyl side, 3 side chain; on linkers, the order of the positions; unused ones are H or OH. Bridge positions count the residues as written; N and C are the ends. Square brackets hold non-standard residues; d marks the D form. Peptide text beside a SMILES is read from it. I, II: the chains in the order shown. Actinocin(1to9) = Cc1c2oc3c(C)ccc(C(=O)[*:2])c3nc-2c(C(=O)[*:1])c(N)c1=O; NMeV = CN[CH](C(=O)O)C(C)C; Sar = CNCC(=O)O

Test system: NCI-H322M lung
Experiment: NCI-60 cell line screen, 48 h

SMILES | TGI | GI50
O=S(O)CCCCCSSc1ccc(Cl)cc1 | > 100 µM | –
C=C(CN(C)C)C(=O)c1ccccc1 | > 54.7 µM | –
O=[N+]([O-])c1ccc(C2Nn3c(nnc3-c3cccc([N+](=O)[O-])c3)S2)cc1 (stereo unspecified) | > 100 µM | –
CCN(CC)CCOc1ccc(/C(=C(\C)Cc2ccc(OC)cc2)c2ccc(O)cc2)cc1 | 11.8 µM | 3.92 µM
NC(=S)N/N=C/C(O[C@@H](/C=N/NC(N)=S)CO)n1cnc2c(N)ncnc21 (stereo partly specified) | > 100 µM | –
NNC(=O)N/N=C(/CC1(O)C(=O)Nc2ccc(Br)cc21)c1ccccc1 (stereo unspecified) | > 100 µM | –
CC[C@@]1(O)C(=O)OCc2c1cc1n(c2=O)Cc2cc3cc(O)ccc3nc2-1 | 11.7 µM and 12.9 µM | 0.129 µM
COc1ccc(NCc2cccc3c(=O)c4ccc(Cl)cc4oc23)cc1 | > 100 µM | –
O=C(Nc1ccc(C(F)(F)F)cc1[N+](=O)[O-])C(=O)Nn1c(=S)[nH]c2ccccc2c1=O | > 100 µM | –
COc1cc(O)c2c(c1C)C(C)(O)c1c(C)coc1C2=O (stereo unspecified) | > 100 µM | –
C[Si](C)(C)CCOCN(C(=O)C1=CCC2(CC1)OCCO2)c1ccccc1I | 37.9 µM | –
O=C(O)C1CC[N-]CC1.O=C(O)C1CC[N-]CC1.[NH2-].[NH2-].[Pt+4] | > 100 µM | > 100 µM
O=C(Cn1c2ccc(Br)cc2c2nc3ccccc3nc21)NNC(=O)NC1CCCCC1 | > 100 µM | –
N#Cc1c(-c2ccccc2)nc(SCC(O)CN2CCOCC2)nc1N1CCOCC1 (stereo unspecified) | > 100 µM | 18.8 µM
CCCN(CCCC(NC(C)=O)C(=O)NCc1ccccc1)C(=O)N(C)N=O (stereo unspecified) | > 100 µM | –
CC(NC1=NCCO1)c1ccsc1 (stereo unspecified) | > 100 µM | –
C[n+]1c(-c2ccc(/C=N\Nc3ccnc(N/N=C/c4ccc(-c5cn6ccsc6[n+]5C)cc4)n3)cc2)cn2ccsc21 | > 100 µM | –
COc1cc2c(SCCN(C)C)nc3ccccc3c2c2ccccc12 | 4.06 µM | –
[N-]=[N+]=NC1(Cc2ccccc2)C(=O)Nc2ccccc2C1=O (stereo unspecified) | > 100 µM | –
COc1ncnc2c(Cl)c(C(O)c3ccccc3)c(Cl)cc12 (stereo unspecified) | > 100 µM | –
COc1ccc(/C=N/NS(=O)(=O)c2ccc(/C=C3\NC(=O)NC3=O)cc2)cc1 | > 100 µM | –
O=C1NC(=NCCc2ccccc2F)S/C1=C\c1ccc2ncccc2c1 | > 25 µM | 8 µM
COC1(OC)CCCCCCCCC(OC)(OC)CCCCCCCC1 | > 100 µM | –

SMILES | TGI | GI50
Cc1cccc2c(N)c3cccc(C(=O)NCCNCCN)c3nc12 | 44.7 µM | –
CC(C)(Oc1cccc(N2CCC[C@@H](C(=O)N(Cc3ccc(-c4cn[nH]c4)cc3)C3CC3)C2)c1)C(=O)N1CCNCC1 | 28.2 µM | 13.8 µM
Cn1ccc(S(=O)(=O)N2CCC[C@H](Nc3nccc(-c4c(-c5cccc(O)c5)nc5occn45)n3)C2)n1 | 81.6 µM | 14.3 µM
CN(C)/C=N/c1cc(=O)n(C)c(=O)n1C | > 100 µM | –
CC(=O)CCC[C@@H](C)[C@@H]1O[C@H]([C@@]2(C)CCC(=O)O2)CC2[C@H]1OC(=O)C21CC1 (stereo partly specified) | > 100 µM | > 100 µM
COC(=O)c1ccccc1C1CN=NC12Cc1cc3c(cc1C2=O)CCC3 (stereo unspecified) | > 100 µM | –
O=C(Cc1csc2[n+]1C(=O)/C(=C/c1ccc(Cl)cc1)S2)Nc1ccccc1 | 87.1 µM | –
C#CC(O)/C=C/C(O)CCCC(O)CC#CC(O)C#CCCCCC(O)/C=C/CCCCCC(=O)CCCCCCCCCCCCCC(O)C(O)C#CC(=O)O (stereo unspecified) | > 25 µM | –
COc1cc2c3c(n(CCCNCCCCN)c(=O)c2cc1OC)-c1cc2c(cc1C3=O)OCO2 | 19.5 µM | 5.22 µM
O=C(Nc1nc2ccc(OC(F)(F)F)cc2s1)c1ccc(F)cc1 | 53.3 µM | 4.44 µM
COC12OCCN(C)C1=CC(=O)C1N=NCC12 (stereo unspecified) | > 100 µM | –
O=C(Oc1ccc(C(c2c(O)c3ccccc3oc2=O)c2c(O)c3ccccc3oc2=O)cc1)c1ccc(C(=O)c2ccccc2)cc1 | 89.2 µM | –
CN1CCN(CCCCCOc2cc(O)c3c(=O)cc(-c4ccccc4)oc3c2)CC1 | 8 µM | 2.1 µM
C[C@H]1[C@H]2[C@H](C[C@@]3(C)C4=CC[C@H]5C(C)(C)[C@@H](OC6OCC(O)C(O)C6O)CC[C@@]56C[C@@]46CC[C@]23C)O[C@@]2(O)[C@@H]1OC(C)(C)[C@H]2O (stereo partly specified) | 11.7 µM | –
O=C(CCl)N1CCN(c2ccccc2)CC1 | 35.7 µM | –
COc1ccc(CC2NC(=O)C(NC(=O)c3c4nc5c(C(=O)NC6C(=O)NC(Cc7ccc(OC)cc7)C(=O)N7CCCC7C(=O)N(C)CC(=O)N(C)C(C(C)C)C(=O)OC6C)ccc(C)c5oc-4c(C)c(=O)c3N)C(C)OC(=O)C(C(C)C)N(C)C(=O)CN(C)C(=O)C3CCCN3C2=O)cc1 (stereo unspecified) (I: TY(Me)P[Sar][NMeV] / II: TY(Me)P[Sar][NMeV]; ester I:1-I:C, II:1-II:C; linker I:N-II:N via Actinocin(1to9); configuration not given here) | 0.124 µM | –
Cc1ccc(NC(=O)CC(=O)N2N=C(N(c3ccccc3)c3ccccc3)CC2c2ccccc2)cc1 (stereo unspecified) | > 100 µM | –
COC1(OC)CCC2(C)OC(c3ccccc3)C1O2 (stereo unspecified) | > 100 µM | –
O=[N+]([O-])c1ccc(C2=NOC(c3ccccc3)N2C23CC4CC(CC(C4)C2)C3)cc1 (stereo unspecified) | > 100 µM | –
C#CCC(O)c1ccc(OC)c(OCc2ccccc2)c1 (stereo unspecified) | > 100 µM | –
CC(C)(C)OC(=O)NC(Cc1ccc(OC(C)(C)C)cc1)C(=O)N[C@H]1CC[C@H](C(=O)O)C1 (stereo partly specified) | > 100 µM | –
CCCCN(CCCC)CC(C(=O)Nc1ccc([N+](=O)[O-])cc1[N+](=O)[O-])/C(C)=N\NC(=O)c1ccncc1 (stereo unspecified) | > 100 µM | –
Cn1c(=O)oc2cc(C(O)CN3CCN(Cc4ccc5c(c4)OCO5)CC3)ccc21 (stereo unspecified) | > 100 µM | –

SMILES | TGI | GI50
CCN(CC)CC(C(C)=O)C(c1ccccc1)c1c(O)c2ccccc2oc1=O (stereo unspecified) | > 100 µM | –
CCOC(=O)C1(C)C2=CC=C(O2)C(C)(C)C2=CC=C(O2)C(C)(C)C2=CC=C(O2)C(C)(C)C2=CC=C1O2 | > 100 µM | –
CCCCNC(=O)CC1=C(C)/C(=C/c2[nH]c(-c3ccc[nH]3)cc2OC)N=C1C | 16.7 µM | 4.39 µM
CCOc1cc(CC[N+](C)(C)C)c2c(ccc3ccc(OC)c(OC)c32)c1OC | > 100 µM | –
c1ccc(CN2C3C4N(Cc5ccccc5)C2C2N(Cc5ccccc5)C(C(N2Cc2ccccc2)N4Cc2ccccc2)N3Cc2ccccc2)cc1 | > 100 µM | –
CNc1ccc(C)cc1S(=O)(=O)c1ccccc1[N+](=O)[O-] | > 100 µM | –
c1ccc(-c2sc(-c3ccccc3)c3c2C(c2ccccc2)c2c(-c4ccccc4)sc(-c4ccccc4)c2C3c2ccccc2)cc1 (stereo unspecified) | > 100 µM | –
CC(O)C1(O)C(O)CC(OC2c3cc4c(c(O)c3[C@@H]3C[C@@]2(C)OC32C=c3cc[nH]c3=N2)C(=O)c2cccc(O)c2C4=O)OC1C (stereo partly specified) | 6.88 µM | –
N#CC(Cl)CS(=O)(=O)c1ccccc1 (stereo unspecified) | 29.9 µM | –
CCN(CC)CCN1C(=O)c2c(c3c4cccc(Cl)c4n(C4OC(CO)C(OC)C(O)C4O)c3c3[nH]c4c(Cl)cccc4c23)C1=O (stereo unspecified) | – | 0.000217 µM and < 0.0292 µM and < 0.01 µM
NN/C(=N\S(=O)(=O)c1cc(S(=O)(=O)c2ccccc2)cs1)Nc1ccc(Cl)cc1 | > 100 µM | –
CC(=O)NNc1nc(C)c(C(=O)/C=C/c2ccc(N(C)C)cc2)s1 | > 100 µM | –
C=CC(=O)C#Cc1cnc(OC)nc1OC | > 100 µM | –
Oc1ccc(I)c2cccnc12 | 82.5 µM | –
COC(=O)C1=C(C)NC(CF)=C(C(=O)OC)C1c1cccc2c(=O)c3ccccc3oc12 (stereo unspecified) | > 100 µM | –
Cc1ccc2c(-c3ccnc(Nc4cccc(C(F)(F)F)c4)n3)c(-c3ccccc3)nn2n1 | > 25 µM | 11.3 µM
CCOC(=O)/C1=C(\C)N(Cc2ccccc2)C(=O)c2ccccc2C(=O)c2c(OC(C)=O)ccc(OC(C)=O)c21 | > 100 µM | –
O=C1CCC2(c3ccccc3)OCC([C@@H](O)c3ccccc3)N12 (stereo partly specified) | > 100 µM | –
CC(=O)[CH-]C(=O)c1ccccc1.CC(=O)[CH-]C(=O)c1ccccc1.CC(=O)[CH-]C(=O)c1ccccc1.[Cl-].[Hf+4] | > 100 µM | 24.3 µM
COc1c(CC(C)=O)c2ccccc2n1C(C)=O | > 100 µM | –
Oc1c(Cl)cc(Cl)c(Cl)c1Cc1c(O)c(Cl)cc(Cl)c1Cl | 13.9 µM | 0.706 µM
C=C1[C@@H](OC(C)=O)/C=C/C2C3C(=O)[C@@](C)(OC(C)=O)[C@H]([C@H](OC(C)=O)[C@]4(O)[C@@H](C)C(=O)O[C@H]4[C@H]1Cl)[C@@]23C (stereo partly specified) | > 100 µM | –
N#Cc1ncc(-c2ccc(C(F)(F)F)cc2)c(NC2CCCCCC2)n1 | > 100 µM | > 100 µM

SMILES | TGI | GI50
Cc1cc2c3c(nc4ccccc42)C(=O)c2cccnc2-c3n1 | 1.1 µM | 0.165 µM
O=C1CC(=O)NC(=NN2C(=O)CSC2c2ccc(Cl)cc2)N1 (stereo unspecified) | > 100 µM | –
COc1ccc(C(=O)C(c2ccc(OC)cc2)C2(O)C(=O)Nc3c(Cl)cc(Cl)cc32)cc1 (stereo unspecified) | 54.8 µM | –
CC1=CP(=O)(OC(C)C)C=C(C)C1=C(Cl)Cl (stereo unspecified) | > 100 µM | –
Cc1cc(N(CCC#N)CCC#N)ccc1/C(Sc1ccccc1)=C(\NC(=O)/C=C/c1ccccc1)C(=O)Sc1ccccc1 | 25.9 µM | –
C/C=C(/C)C(=O)OC1C=C(CO)C(=O)C(OC(=O)C2(C)OC2C)C1C(C)C (stereo unspecified) | 3.61 µM | 1.88 µM
C/C(=C\CNc1ncnc2c1ncn2C1CCCCO1)COP(=O)(O)O (stereo unspecified) | > 100 µM | –
CCN1C[C@@H](C)n2c(c(O)c3c(=O)n(Cc4ccc(F)c(Cl)c4)nc(C(=O)NC)c32)C1=O | > 100 µM | 2.97 µM
CCc1cccc(C(C)C)c1NC(=O)C(=O)Nn1c(=S)[nH]c2ccccc2c1=O | > 100 µM | –
CC(=O)Nn1c(Cc2ccc(Cl)cc2)nn(C)c1=O | > 100 µM | –
COc1cc(C2C=C(C)N=C3SC=C(C)N32)cc(OC)c1OC (stereo unspecified) | 11.1 µM | 3.01 µM
S=c1[nH]nc(COc2ccc(Cl)cc2)n1-c1ccccc1 | > 100 µM | –
Cc1cc(C)c([O-])c(-[n+]2c(-c3ccccc3)cc(-c3ccccc3)cc2-c2ccccc2)c1 | 18.2 µM | –
C#CCNCC(=O)O | > 100 µM | –
Cc1cc(C(O)CCCc2ccccc2)cc(C)c1O (stereo unspecified) | > 100 µM | –
CC(=O)n1nc(-c2[nH]c(C)c(-c3nn(C(C)=O)c(=S)o3)c2C)oc1=S | > 100 µM | –
O=C(O[C@H](/C=C/c1ccccc1)P1(=O)N(Cc2ccccc2)[C@H]2CCCC[C@@H]2N1Cc1ccccc1)c1ccccc1 | > 100 µM | –
CCc1nc(N)nc(N)c1-c1ccc(N2CCNCC2)c([N+](=O)[O-])c1 | > 100 µM | –
O=S1(=O)C[C@H](NCc2ccccc2)[C@H](NCc2ccccc2)C1 | > 100 µM | –
COC(=O)C1=C(C)N(NC(N)=O)C2(N)N(NC(N)=O)C(C)=C(C(=O)OC)C12C#N (stereo unspecified) | > 100 µM | –
Cc1ncnc2c1ccn2[C@@H]1C[C@H](Oc2cc(C(F)F)c(F)c3c2CNCC3)[C@@H](O)[C@H]1O | > 100 µM | > 100 µM
